Test results reported in PubChem BioAssay AID686971 (National Center for Advancing Translational Sciences (NCATS), 2013).
The campaign covered roughly 360,000 compounds. About 7,500 (2.1%) were called active. The inconclusive results got no clear call from the source; some entries with a clear call stand among them for comparison. Calls follow the shape of the dose curve; as a rule, active = well fitted cell-killing curve with a large enough effect; inconclusive = small, poorly fitted or top-dose-only effect, or effect the other way, or another doubt; inactive = no such curve, though single readings can be large or run the other way. No potency is given beside an inconclusive call; the fits are too rough.

Test: qHTS for induction of synthetic lethality in tumor cells producing 2HG: qHTS for the HT-1080-IDH1KD cell line;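 as to activity, negative = toxicity: 0% = DMSO wells and -100% = cell-free medium wells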
Details: HT-1080 IDH1 knockdown viability, ATP luminescence, 48 h; activity, negative = toxicity: at 46.1 µM (top of the series) unless noted
Outline: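 Knockdown cells (IDH1KD HT-1080) received compounds 2 h after plating at 750 cells/well and were kept 48 h at 37 °C in 5% FBS RPMI. A CellTiter-Glo luminescence read gave % activity for curve fitting.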
Potency is read from the fitted curve at half-maximal effect; tags tell the direction and shape of the fitted curve.

SMILES	activity, negative = toxicity	Potency
COc1ccc(NC(=O)c2sc(=O)n(Cc3ccc(F)c(Cl)c3)c2C)cc1OC	inconclusive: -24.8% [cytotoxic]	–
Nc1c(-c2cccs2)cnn1-c1nc(-c2ccc(Cl)cc2Cl)cs1	–	inconclusive [cytotoxic, single point]
COc1ccc(Cl)cc1/C=C1/C(=O)ON=C1C	inactive: 2.98%	–
O=C(CCCSc1nc2ccccc2[nH]1)NC1CCCCC1	inactive: -2.74%	–
Cc1ccccc1Nc1nnc(SCC(=O)Nc2ccccc2[N+](=O)[O-])s1	inactive: -1.47%	–
CCCc1c(C(=O)N/N=C(\C)c2ccccn2)nnn1-c1nonc1N	–	inconclusive [cytotoxic, full curve]
COc1cccc(NC(=O)C2CCN(Cc3cnn(-c4ccccc4)c3-n3cccc3)CC2)c1	inactive: -8.7%	–
CCCCCCCCC(c1nc2ccccc2[nH]1)N1CCN=C(c2ccccc2)C1=O (stereo not drawn)	–	inconclusive [cytotoxic, single point]
Cc1nc(-c2ccncc2)nc(NCCNc2ccc(C(F)(F)F)cn2)c1Cl	inconclusive: -22.4% [cytotoxic]	–
CCN(CC)c1ccc(NC(=O)c2cccc(F)c2)c(C)c1	–	active: 16.4 µM
O=C(CNc1cccc(S(=O)(=O)N2CCCCC2)c1)Nc1ccc(C(F)(F)F)cc1	inactive: -25.1%	–
N#CCCN1CCN(C(=S)c2ccc(-c3ccc(Cl)c(Cl)c3)o2)CC1	–	inconclusive [cytotoxic, single point]
CC(=O)OC1CCC2(C)C(COc3ccc4ccc(=O)oc4c3)C(C)(O)CCC2C1(C)C (stereo not drawn)	–	inconclusive [cytotoxic, single point]
CCCCCOc1ccc(C(=O)CCN2CCOCC2)cc1	–	inconclusive [cytotoxic, single point]
O=C1OC(CN2CCOCC2)CN1N=Cc1ccc([N+](=O)[O-])o1 (stereo not drawn)	–	inconclusive [cytotoxic, single point]
O=c1c2ccccc2oc2ccc(NCCCn3ccnc3)cc12	inactive: -8.36%	–
N#CC(C#N)=C1C=CC=CN1/C(=C\c1ccco1)C(=O)c1ccc(Cl)cc1	–	inconclusive [cytotoxic, partial curve, poor fit]
CC(C)(C)OC(=O)N[C@H](Cc1ccccc1)C(=O)N1CCC[C@@H]1C(=O)O	inactive: 4.99%	–
Nc1c(C(=O)N2CCOCC2)sc2nc3c(cc12)CCCC3	–	inconclusive [cytotoxic, partial curve]
O=[N+]([O-])c1cccc(-c2nc3ccccc3s/c2=N/O)c1	–	inconclusive [cytotoxic, partial curve]
CN(Cc1ccccc1)S(=O)(=O)c1ccc2[nH]cc(C(=O)NCC3CCCO3)c(=O)c2c1 (stereo not drawn)	–	inconclusive [cytotoxic, single point]
COc1cc(NC(=O)c2cc(-c3ccccc3Cl)on2)cc(OC)c1OC	–	inconclusive [cytotoxic, partial curve]
COc1ccc(C)c2sc(N(CCCN(C)C)C(=O)CS(=O)(=O)c3ccc(F)cc3)nc12	inactive: -24%	–
O=C(CSc1nnc(CNC(=O)c2cccc(C(F)(F)F)c2)o1)NC1CCCCC1	inactive: 0.873%	–
C=C1CC(Cn2cc(Br)c(=O)[nH]c2=O)(c2ccc(-c3ccccc3)cc2)OC1=O (stereo not drawn)	–	active: 1.64 µM

SMILES	activity, negative = toxicity	Potency
CCCCC(=O)N(C)c1c(C)nc2ccc(C(=O)N3CCN(S(=O)(=O)CC)CC3)cn12	–	inconclusive [rising, single point]
CCOC(=O)C(C)Oc1cccc2c(=O)n(CC(=O)NCc3ccco3)ccc12 (stereo not drawn)	–	active: 1.64 µM
Cc1ccc(NC(=O)c2ccc(OC(=S)N3CCOCC3)cc2)cc1	–	inconclusive [cytotoxic, single point]
Cc1cccc(Nc2n[nH]c(=S)s2)c1C	inactive: 0%	–
COc1cc(C(=O)N/N=C/c2cc([N+](=O)[O-])cs2)cc(OC)c1OC	–	active: 1.46 µM
COc1ccc(NCN2C(=O)CCC2=O)cc1	–	inconclusive [cytotoxic, single point]
c1ccc(C(c2ccccc2)N2CCN(Cc3nnnn3C3CCCCC3)CC2)cc1	inactive: 0.86%	–
Cc1ccc(Oc2ccc(S(=O)(=O)N3CCOCC3)cc2C(N)=O)c(-n2nc3ccccc3n2)c1	–	active: 4.11 µM
CCC(C)c1ccc(NC(=O)Nc2cnccn2)cc1 (stereo not drawn)	–	active: 8.2 µM
S=c1[nH]nc(COc2ccc(Cl)cc2)n1Cc1ccco1	inactive: -8.49%	–
Cc1cc(C)nc(Sc2ccc([N+](=O)[O-])cc2[N+](=O)[O-])n1	–	inconclusive [cytotoxic, partial curve]
COc1ccc(OC)c(NC(=O)c2cc3n(n2)C(C(F)(F)F)CC(c2ccc4c(c2)OCO4)N3)c1 (stereo not drawn)	–	inconclusive [cytotoxic, single point]
COCCNC(=O)C(c1ccc(Cl)cc1)N(C(=O)Cn1nnc2ccccc21)c1cccnc1 (stereo not drawn)	inactive: 17.7%	–
COC(=O)Nc1ccc2c(c1)N(C(=O)CCCl)c1ccccc1S2	–	inconclusive [cytotoxic, single point]
CCCCCCCCN1C(=O)[C@H](CC(=O)N2CCSCC2)C[C@@]2(C(=O)OC)CC(C)(C)CC=C12	–	inconclusive [cytotoxic, single point]
Cc1ccc(C(=O)n2c3ccccc3c3ccccc32)cc1	–	active: 6.51 µM
CN1CCN(C(c2cccc(C(F)(F)F)c2)c2nnnn2Cc2ccccc2)CC1 (stereo not drawn)	–	inconclusive [cytotoxic, single point]
CCCNC(=O)C1(C)CCCN(Cc2ccc(-c3ccccc3)cc2)C1 (stereo not drawn)	–	inconclusive [cytotoxic, single point]
O=S(=O)(c1ccc(Br)cc1)c1cnc2ccccc2n1	–	inconclusive [cytotoxic, single point]
Cc1ccc(NC2=NC3(CCCC3)N=C(N)N2)c(C)c1	–	active: 16.4 µM
O=C(Nc1ccccc1)OC[C@@H]1C=CS(=O)(=O)N1Cc1ccc(Br)cc1	–	inconclusive [cytotoxic, single point]
COc1cc(/C=N/O)cc(Br)c1OCc1ccc(Cl)cc1	–	inconclusive [cytotoxic, single point]
CCCNC(=O)c1ccccc1NC(=O)c1ccc2c(=O)n3c(nc2c1)CCC3	inconclusive: -25% [cytotoxic]	–
Cc1cnn(-c2nc(-c3ccccc3)cc(-c3ccccc3)n2)c1	–	inconclusive [cytotoxic, single point]
O=C(COc1ncnc2sccc12)NC1CCCCC1	inactive: 8.49%	–

SMILES	activity, negative = toxicity	Potency
CC1(C(=O)NS(=O)(=O)c2ccccc2)CCN1C(=O)c1cccc2ccccc12 (stereo not drawn)	–	inconclusive [rising, single point]
O=C1CCCc2ccccc2N1Cc1ccccc1Cl	inactive: -7.62%	–
COc1ccc(/C=C/C(=O)c2ccccn2)cc1	–	inconclusive [cytotoxic, single point]
CCCCN(CC)Cc1ccc(CNC(=O)Nc2ccc(Cl)cc2)o1	–	inconclusive [cytotoxic, partial curve, poor fit]
COc1ccc(N2CCN(CCC(=O)c3ccc4ccccc4c3)CC2)cc1	–	inconclusive [cytotoxic, single point]
CCN(CC)CC(=O)Nc1ccc(-c2ccc(NC(=O)CN(CC)CC)c(OC)c2)cc1OC	–	inconclusive [cytotoxic, single point]
N=c1c2c(n(Cc3ccc(Cl)c(Cl)c3)c3c1CCC3)CCCC2	–	active: 18.4 µM
N=C1C(c2nc3ccccc3s2)=C(O)CN1NC(=O)c1ccc([N+](=O)[O-])cc1	–	active: 20.6 µM
Cc1ccc(CNC(=O)Cc2ccc(-n3cccc3)cc2)cc1	–	active: 4.61 µM
COC(=O)c1ccccc1NC(=S)NC(=O)CC(C)C	–	inconclusive [cytotoxic, single point]
Cc1ccc(-c2csc(C(C)(O)c3cccc(F)c3)n2)cc1C (stereo not drawn)	–	inconclusive [cytotoxic, single point]
COC(=O)[C@@]12C[C@@H](CC(=O)NCc3ccc(C)o3)C(=O)N(CCc3ccc(OC)c(OC)c3)C1=CCC(C)(C)C2	inactive: -16.5%	–
O=c1c2ccccc2nc(/C=C/c2cccnc2)n1CCc1ccccc1	–	inconclusive [cytotoxic, single point]
CC1(C)CC2(CC(c3cccs3)c3cc(Cl)c(O)cc3O2)NC(=S)N1 (stereo not drawn)	inactive: -22.4%	–
NC(Cc1ccc(Cl)cc1)c1csc(Nc2ccc(C(=O)c3ccccc3)cc2)n1 (stereo not drawn)	–	inconclusive [cytotoxic, single point]
CCN1CCN(c2cc(C)c3cc(NC(=O)c4ccncc4)ccc3n2)CC1	inactive: -5.61%	–
CCc1ccccc1Nc1nc(N)nc(COC(=O)c2cccn2C)n1	–	active: 6.31 µM
CCOC(=O)C1=C(O)/C(=C/c2cn(CC(=O)NCC3CCCO3)c3ccccc23)SC1=Nc1ccc(C)cc1 (stereo not drawn)	–	inconclusive [cytotoxic, partial curve]
COc1ccc(NC(=O)c2ccccc2SCc2ccccc2)cc1	inactive: -27.5%	–
COc1ccccc1NC(=S)NC(=O)c1ccc(Cn2cc(Br)cn2)cc1	–	inconclusive [cytotoxic, partial curve]
COc1ccc(N(CC2CO2)S(=O)(=O)c2ccccc2)cc1 (stereo not drawn)	–	inconclusive [cytotoxic, single point]
CCOc1ccc(N(CC(=O)NC2CCCCC2)C(=O)CCCC(=O)Nc2ccccn2)cc1	inactive: -11.1%	–
COc1cccc(NC(=O)CN(C)CC(=O)NCc2ccc(F)cc2)c1	inactive: -11.7%	–
